Data as given in the supplement of paper PMC11741623.
Some of the results follow. Interaction screen of human proteins with wild-type SARS-CoV-2 proteins by split-DHFR complementation in yeast, 1 µg/mL methotrexate. Value = fitness of the pair (three or more lineages) minus that of the viral protein without a human partner, on a scale set by negative (0) and fused positive (1) controls, mean of up to three cultures; higher = more likely to interact. Active = false discovery rate below 0.05 (one-sided t-test) in at least one culture. Nearly all pairs are not hits, and differences among them are mostly noise (correlation between cultures about 0.3); most hits were seen in one culture only. Human sequences are the Swiss-Prot entries looked up by gene name; the clone may be another isoform. NSP2 values were corrected by the authors for a growth advantage. Listed are human proteins with a hit and a random twelfth of the others.

Key:
Experiment in all cases: yeast fitness gain over the viral ORF with no human partner (scaled fitness); higher = more likely to interact
SARS-CoV-2 E = molecular target: SARS-CoV-2 E
Method: (§1)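 Split mouse DHFR complementation in pooled diploid yeast: human ORFeome clones carry one fragment and viral ORFs the other; barcoded lineages compete in 1 µg/mL methotrexate and fitness is read by barcode sequencing in up to three cultures.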

SARS-CoV-2 M = molecular target: SARS-CoV-2 M
Method: as §1

SARS-CoV-2 N = molecular target: SARS-CoV-2 N
Method: as §1

SARS-CoV-2 NSP1 = molecular target: SARS-CoV-2 NSP1
Method: as §1

SARS-CoV-2 NSP10 = molecular target: SARS-CoV-2 NSP10
Method: as §1

SARS-CoV-2 NSP12 = molecular target: SARS-CoV-2 NSP12
Method: as §1

SARS-CoV-2 NSP13 = molecular target: SARS-CoV-2 NSP13
Method: as §1

SARS-CoV-2 NSP15 = molecular target: SARS-CoV-2 NSP15
Method: as §1

SARS-CoV-2 NSP16 = molecular target: SARS-CoV-2 NSP16
Method: as §1

SARS-CoV-2 NSP2 = molecular target: SARS-CoV-2 NSP2
Method: as §1

SARS-CoV-2 NSP4 = molecular target: SARS-CoV-2 NSP4
Method: as §1

SARS-CoV-2 NSP5 = molecular target: SARS-CoV-2 NSP5
Method: as §1

SARS-CoV-2 NSP6 = molecular target: SARS-CoV-2 NSP6
Method: as §1

SARS-CoV-2 NSP7 = molecular target: SARS-CoV-2 NSP7
Method: as §1

SARS-CoV-2 NSP8 = molecular target: SARS-CoV-2 NSP8
Method: as §1

SARS-CoV-2 NSP9 = molecular target: SARS-CoV-2 NSP9
Method: as §1

SARS-CoV-2 ORF10 = molecular target: SARS-CoV-2 ORF10
Method: as §1

SARS-CoV-2 ORF3A = molecular target: SARS-CoV-2 ORF3A
Method: as §1

SARS-CoV-2 ORF3B = molecular target: SARS-CoV-2 ORF3B
Method: as §1

SARS-CoV-2 ORF6 = molecular target: SARS-CoV-2 ORF6
Method: as §1

SARS-CoV-2 ORF7A = molecular target: SARS-CoV-2 ORF7A
Method: as §1

SARS-CoV-2 ORF7B = molecular target: SARS-CoV-2 ORF7B
Method: as §1

SARS-CoV-2 ORF8 = molecular target: SARS-CoV-2 ORF8
Method: as §1

SARS-CoV-2 ORF9B = molecular target: SARS-CoV-2 ORF9B
Method: as §1

[1] = molecular target: SARS-CoV-2 ORF9Bwu (the 73-codon ORF)
Method: as §1

SARS-CoV-2 S = molecular target: SARS-CoV-2 S
Method: as §1

SARS-CoV-2 NSP14 = molecular target: SARS-CoV-2 NSP14
Method: as §1

Measured: yeast fitness gain

B1: RFPL3, O75679 (protein)
chain: MKRLSLVTTNRLSPQGNFLPLCTFPLAVDMAALFQEASSCPVCSDYLEKPMSLECGCTVCLKCINSLQKEPHGEDLLCCCCSMVSQRNKIRPNRQLERLVSHIKELEPKLKKILQMNPRMRKFQVDMTLDADTANNFLLISDDLRSVRSGLITQNRQDLAERFDVSVCILGSPRFTCGRHYWEVDVGTSTEWDLGVCRESVHCKGKIQLTTELGFWTVSLRDGSRLSASTVPLTFLLVDRKLQRVGIFLDMGMQNVSFFDAESGSHVYTFRSVSAEEPLRPFLAPSIPPNGDQGVLSICPLMNSGTTDAPVRPGEAK
inactive: SARS-CoV-2 E -0.186 | SARS-CoV-2 M 0.0313 | SARS-CoV-2 N -0.0525 | SARS-CoV-2 NSP1 = 0.0245 | SARS-CoV-2 NSP10 = 0.0403 | SARS-CoV-2 NSP12 = -0.0239 | SARS-CoV-2 NSP13 = -0.00786 | SARS-CoV-2 NSP15 = -0.0823 | SARS-CoV-2 NSP16 = 0.0586 | SARS-CoV-2 NSP2 = -0.194 | SARS-CoV-2 NSP4 = 0.103 | SARS-CoV-2 NSP5 = -0.065 | SARS-CoV-2 NSP6 = 0.0378 | SARS-CoV-2 NSP7 = 0.0394 | SARS-CoV-2 NSP8 = 0.0137 | SARS-CoV-2 NSP9 = 0.00397 | SARS-CoV-2 ORF10 = 0.061 | SARS-CoV-2 ORF3A -0.0132 | SARS-CoV-2 ORF3B -0.0262 | SARS-CoV-2 ORF6 = 0.0138 | SARS-CoV-2 ORF7A -0.0371 | SARS-CoV-2 ORF7B 0.0214 | SARS-CoV-2 ORF8 = 0.0509 | SARS-CoV-2 ORF9B -0.175 | [1] 0.0217 | SARS-CoV-2 S 0.0255

B2: RFTN1, Q14699 (protein)
chain: MGCGLNKLEKRDEKRPGNIYSTLKRPQVETKIDVSYEYRFLEFTTLSAAELPGSSAVRLASLRDLPAQLLELYQQGFSLAALHPFVQPTHEREKTPLEHIFRAILIKKTDRSQKTDLHNEGYILELDCCSSLDHPTDQKLIPEFIKKIQEAASQGLKFVGVIPQYHSSVNSAGSSAPVSTANSTEDARDAKNARGDHASLENEKPGTGDVCSAPAGRNQSPEPSSGPRGEVPLAKQPSSPSGEGDGGELSPQGVSKTLDGPESNPLEVHEEPLSGKMEIFTLFNKPKSHQKCRQYYPVTIPLHVSKNGQTVSGLDANWLEHMSDHFRKGGMLVNAVFYLGIVNDSLHGLTDGVFIFEAVSTEDSKTIQGYDAIVVEQWTVLEGVEVQTDYVPLLNSLAAYGWQLTCVLPTPVVKTTSEGSVSTKQIVFLQRPCLPQKIKKKESKFQWRFSREEMHNRQMRKSKGKLSARDKQQAEENEKNLEDQSSKAGDMGNCVSGQQQEGGVSEEMKGPVQEDKGEQLSPGGLLCGVGVEGEAVQNGPASHSRALVGICTGHSNPGEDARDGDAEEVRELGTVEEN
inactive: SARS-CoV-2 E -0.2 | SARS-CoV-2 M 0.0394 | SARS-CoV-2 N 0.158 | SARS-CoV-2 NSP1 = 0.0448 | SARS-CoV-2 NSP10 = 0.0711 | SARS-CoV-2 NSP12 = -0.00221 | SARS-CoV-2 NSP13 = 0.0472 | SARS-CoV-2 NSP15 = -0.0492 | SARS-CoV-2 NSP16 = 0.0405 | SARS-CoV-2 NSP5 = 0.00123 | SARS-CoV-2 NSP6 = -0.0239 | SARS-CoV-2 NSP8 = -0.0886 | SARS-CoV-2 NSP9 = -0.0303 | SARS-CoV-2 ORF10 = -0.0415 | SARS-CoV-2 ORF3A 0.0214 | SARS-CoV-2 ORF3B -0.0401 | SARS-CoV-2 ORF6 = 0.0324 | SARS-CoV-2 ORF7A 0.0782 | SARS-CoV-2 ORF7B 0.000546 | SARS-CoV-2 ORF8 = 0.0141 | SARS-CoV-2 ORF9B 0.00215 | [1] 0.051 | SARS-CoV-2 S 0.0351
active: SARS-CoV-2 NSP2 = 0.334

B3: SCGB1D1, O95968 (protein)
chain: MRLSVCLLLLTLALCCYRANAVVCQALGSEITGFLLAGKPVFKFQLAKFKAPLEAVAAKMEVKKCVDTMAYEKRVLITKTLGKIAEKCDR
inactive: SARS-CoV-2 E -0.122 | SARS-CoV-2 M 0.0543 | SARS-CoV-2 N 0.0934 | SARS-CoV-2 NSP1 = 0.0477 | SARS-CoV-2 NSP10 = -0.102 | SARS-CoV-2 NSP12 = 0.0407 | SARS-CoV-2 NSP13 = 0.0137 | SARS-CoV-2 NSP14 = 0.0375 | SARS-CoV-2 NSP15 = -0.0725 | SARS-CoV-2 NSP16 = 0.0505 | SARS-CoV-2 NSP2 = -0.125 | SARS-CoV-2 NSP4 = -0.0552 | SARS-CoV-2 NSP5 = 0.0177 | SARS-CoV-2 NSP6 = 0.0496 | SARS-CoV-2 NSP7 = 0.0328 | SARS-CoV-2 NSP8 = 0.0884 | SARS-CoV-2 NSP9 = 0.0522 | SARS-CoV-2 ORF10 = 0.0758 | SARS-CoV-2 ORF3A 0.0469 | SARS-CoV-2 ORF3B 0.031 | SARS-CoV-2 ORF6 = 0.054 | SARS-CoV-2 ORF7A -0.0989 | SARS-CoV-2 ORF7B -0.0219 | SARS-CoV-2 ORF8 = 7.3e-06 | SARS-CoV-2 ORF9B 0.0434 | [1] 0.016 | SARS-CoV-2 S 0.0208

B4: SNAPC2, Q13487 (protein)
chain: MKPPPRRRAAPARYLGEVTGPATWSAREKRQLVRLLQARQGQPEPDATELARELRGRSEAEIRVFLQQLKGRVAREAIQKVHPGGLQGPRRREAQPPAPIEVWTDLAEKITGPLEEALAVAFSQVLTIAATEPVTLLHSKPPKPTQARGKPLLLSAPGGQEDPAPEIPSSAPAAPSSAPRTPDPAPEKPSESSAGPSTEEDFAVDFEKIYKYLSSVSRSGRSPELSAAESAVVLDLLMSLPEELPLLPCTALVEHMTETYLRLTAPQPIPAGGSLGPAAEGDGAGSKAPEETPPATEKAEHSELKSPWQAAGICPLNPFLVPLELLGRAATPAR
inactive: SARS-CoV-2 E -0.0943 | SARS-CoV-2 M -0.0491 | SARS-CoV-2 N 0.0114 | SARS-CoV-2 NSP1 = 0.0473 | SARS-CoV-2 NSP10 = 0.00636 | SARS-CoV-2 NSP12 = 0.00759 | SARS-CoV-2 NSP13 = 0.04 | SARS-CoV-2 NSP14 = -0.0048 | SARS-CoV-2 NSP15 = -0.00891 | SARS-CoV-2 NSP16 = -0.0493 | SARS-CoV-2 NSP2 = -0.141 | SARS-CoV-2 NSP4 = 0.00257 | SARS-CoV-2 NSP5 = 0.0434 | SARS-CoV-2 NSP6 = 0.00984 | SARS-CoV-2 NSP7 = 0.0497 | SARS-CoV-2 NSP8 = 0.0234 | SARS-CoV-2 NSP9 = 0.0147 | SARS-CoV-2 ORF10 = -0.00502 | SARS-CoV-2 ORF3A -0.0627 | SARS-CoV-2 ORF3B 0.00994 | SARS-CoV-2 ORF6 = 0.0156 | SARS-CoV-2 ORF7A 0.0435 | SARS-CoV-2 ORF7B -0.0596 | SARS-CoV-2 ORF8 = 0.0159 | SARS-CoV-2 ORF9B -0.0213 | [1] -0.0138 | SARS-CoV-2 S 0.0717
